Experimental data reported in PubChem BioAssay AID686978 (National Center for Advancing Translational Sciences (NCATS), 2013).
The whole screen tested about 420,000 compounds, of which about 64,000 (15%) were called active. This list was built around the results that the source calls inconclusive (neither active nor inactive); the mix of calls is not that of the screen. The call rests on the fitted dose curve; in most records, active means well fitted inhibition curve with a large enough effect; inconclusive means small, poorly fitted or top-dose-only effect; inactive means flat fitted curve, though single readings scatter. No potency is given beside an inconclusive call; the fits are too rough.

Test: qHTS for Inhibitors of human tyrosyl-DNA phosphodiesterase 1 (TDP1): qHTS in cells in absence of CPT; further: nearly all actives have a fitted effect of over 55% in size
Details: DT40 Tdp1-/- hTDP1 cells, no CPT, ATP luminescence, 48 h; activity change, negative = growth inhibition: at 46.2 µM (top of the series) unless noted
Procedure, shortened: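 Growth kinetics read by CellTiter-Glo luminescence after ≥48 hr at 37 °C. Cells: DT40 Tdp1-/- stably carrying human TDP1, 400 per well, compound exposure in the absence of CPT (DMSO vehicle).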
On the % scale 0 is the no-effect control and ±100 the full control effect; potency means the concentration at half of the fitted maximal effect; tags describe the fitted curve by direction and shape.

SMILES | activity change, negative = growth inhibition | Potency
Cc1ccc(O)c(CNc2nc3ccccc3n2C(C)C)c1 | inconclusive: -32.4% [inhibitor] | –
COc1ccc(CNC(=O)CSCc2cnn(-c3ccccc3)c2-n2cccc2)cc1 | – | active: 23.1 µM
COc1cc(/C=C/C(=O)OCC(=O)N2CCCCCC2)cc(OC)c1OC | – | inconclusive [inhibitor, single point]
COc1ccc(C(CC(=O)Nc2ccc(C)cn2)N2Cc3ccccc3C2=O)cc1OC (stereo not given) | inconclusive: -31.7% [inhibitor] | –
CCOc1ccc(S(=O)(=O)NCCC(=O)Nc2nnc(C)s2)cc1 | – | inactive
CC(C)(C)Nc1nc(Cl)nc(N(C#N)CN2C(=O)c3ccccc3S2(=O)=O)n1 | – | inconclusive [inhibitor, single point]
COc1ccccc1-c1c(C)oc2c(CN3CCOCC3)c(O)ccc2c1=O | – | inactive
COc1ccc(S(=O)(=O)N(CC(=O)N2CCN(c3ccccc3)CC2)c2ccccc2)cc1 | – | inconclusive [inhibitor, single point]
NC(=O)COc1ccc(C23CC4CC(CC(C4)C2)C3)cc1 | – | inconclusive [inhibitor, single point]
COC(=O)c1c(C)oc2ccc(N(C(=O)c3ccncc3)S(=O)(=O)c3cc(C)c(C)cc3C)cc12 | – | active: 5.17 µM
Nc1cccc(-c2nc3cc(S(=O)(=O)c4ccc5oc(-c6cccc(N)c6)nc5c4)ccc3o2)c1 | – | inconclusive [inhibitor, partial curve, poor fit]
c1ccc(-c2noc(-c3cccs3)n2)nc1 | – | inconclusive [inhibitor, partial curve]
CCC(CC)C(=O)Nc1nnc(SCC(=O)N2CCN(c3ccccc3OC)CC2)s1 | – | active: 20.6 µM
COCCn1c(=N)c(C(=O)NCc2ccco2)cc2c(=O)n3ccccc3nc21 | – | inactive
Cc1ccc(CNc2oc(COc3ccccc3Cl)nc2C#N)cc1 | – | inconclusive [inhibitor, single point]
COc1cc(OC)cc(C(=O)Nc2cccc(NC(=O)c3ccccc3)c2)c1 | – | inconclusive [inhibitor, single point]
CC(=O)Nc1sc(C)c(C)c1C(=O)OCC(=O)Nc1cc(S(C)(=O)=O)ccc1Cl | – | inconclusive [inhibitor, full curve, poor fit]
O=C(NCc1ccccc1)c1ccc(CNc2c(N3CCCC3)c(=O)c2=O)cc1 | – | inactive
Cc1cc(NC(=O)Cn2c(C)nc3ccccc3c2=O)ccc1Br | – | inactive
Cc1cccc(OCC(=O)N/N=C\c2cc3c(cc2[N+](=O)[O-])OCO3)c1C | – | inconclusive [inhibitor, single point]
COc1ccc2c(c1)c(CC(=O)N1CCOCC1)c(C)n2C(=O)c1ccc(Cl)cc1 | – | inconclusive [inhibitor, partial curve, poor fit]
Cc1occc1-c1nnc(SCC(=O)N(C)c2ccccc2)o1 | – | inconclusive [inhibitor, single point]
COC(=O)c1ccc(N=NN2CCCCC2)cc1 | – | inconclusive [inhibitor, partial curve, poor fit]
O=C1NN(c2ccccc2)C(=O)/C1=C/c1ccc(-c2ccc(C(=O)O)cc2)o1 | – | inactive

SMILES | activity change, negative = growth inhibition | Potency
CN(C)CCN(C)C1CN(Cc2ccc([N+](=O)[O-])cc2)S(=O)(=O)C1 (stereo not given) | – | inactive
CCOc1ccc(NC(=O)CN(c2ccc([N+](=O)[O-])cc2)S(=O)(=O)c2ccccc2)cc1 | – | inconclusive [inhibitor, single point]
COC(=O)CC1C(C)(C)C2(O)OC34CC2C(=O)[C@@]1(C)C3CC[C@]1(C)C4=CC(=O)OC1c1ccoc1 (stereo not given in full) | – | inconclusive [inhibitor, full curve]
O=C(c1cccc(F)c1)N1CCC[C@@]2(CCN(c3ncccn3)C2)C1 | – | inactive
COc1cccc(CNC(=O)c2nnn(CC(=O)Nc3cc(Cl)ccc3C)c2N)c1 | – | inactive
CCc1ccc2oc(-c3ccc(C)c(NC(=O)COc4ccccc4Cl)c3)nc2c1 | – | inconclusive [inhibitor, single point]
COCCCN(C(=O)CSCc1c(C)noc1C)c1c(N)n(Cc2ccccc2)c(=O)[nH]c1=O | – | inactive
O=C(CCc1nc2ccccc2c(=O)[nH]1)NCCN1C(=O)S/C(=C\c2ccccc2Cl)C1=O | – | inconclusive [inhibitor, single point]
CCOC(=O)c1c(NC(=O)COc2ncnc3ccccc23)sc(C)c1C | – | inconclusive [inhibitor, single point]
Cc1cccc(N2C(=O)C(CC(=O)Nc3cccc(F)c3)N(Cc3cccs3)C2=O)c1 (stereo not given) | – | active: 18.4 µM
C=CCc1ccccc1OCCOc1ccc([N+](=O)[O-])cc1/C=N/NC(N)=O | – | inconclusive [inhibitor, single point]
O=C(Nc1cccc([N+](=O)[O-])c1)C(=O)N1CCCCC1 | – | inconclusive [inhibitor, single point]
Cc1ccc(-n2nc(C)c(NS(=O)(=O)c3ccccc3)c2C)cc1C | – | inconclusive [inhibitor, single point]
CCOC(=O)c1c(/N=C/C2=C(O)CC(C)(C)CC2=O)sc(C(C)=O)c1C | – | inactive
CCCNC(=O)C1CCN(S(=O)(=O)c2ccc(-c3nn[nH]n3)cc2)CC1 | – | active: 0.0103 µM
Cc1ccc(Nc2cc(C)nc3nc(Cc4ccc(Cl)cc4)nn23)cc1 | – | active: 14.6 µM
COCCNC(=O)C(c1ccc(C)o1)N(Cc1cccs1)C(=O)c1snc(C(N)=O)c1N (stereo not given) | inconclusive: -30.6% [inhibitor] | –
Cc1cccc(-n2nnnc2SCn2nnc3ccccc3c2=O)c1 | – | inconclusive [inhibitor, full curve, poor fit]
CC(C)N(C(=O)CSc1nc2ccccc2n1Cc1ccccc1)C(C)C | – | inconclusive [inhibitor, single point]
C=C1CCN([C@@H](CC(C)C)C(=O)NCc2ccc(Cl)c(Cl)c2)S(=O)(=O)c2ccccc21 | – | active: 16.4 µM
CCOc1ccc(CCNC(=O)CCCc2cc(-c3ccc(OCC)cc3)on2)cc1 | – | inactive
CCOc1ccc(OCC(=O)N2CCOCC2)cc1 | – | inactive
Fc1ccc(Nc2ncncc2-c2ccccc2C(F)(F)F)cc1 | – | inconclusive [inhibitor, single point]
N#Cc1c(/N=C/c2ccco2)oc(-c2ccccc2)c1-c1ccccc1 | – | inconclusive [inhibitor, single point]

SMILES | activity change, negative = growth inhibition | Potency
COc1cc(C=NNc2ccc(S(=O)(=O)Nc3ccccc3C(=O)O)cc2[N+](=O)[O-])ccc1O | – | inactive
CCn1cc(C(=O)N2CCN(c3cc(Cl)ccc3C)CC2)c2cc(OC)c(OC)cc2c1=O | – | inconclusive [inhibitor, partial curve, poor fit]
CC(NC(=O)C1(c2cccs2)CCOCC1)c1ccccc1 (stereo not given) | – | inactive
Cc1cc(C(=O)NC2CCCN(Cc3ccccc3F)C2)no1 (stereo not given) | – | inactive
CC(NC(=O)c1cccc(S(=O)(=O)N2CCN(C)CC2)c1)C1CC2CCC1C2 (stereo not given) | – | inconclusive [inhibitor, partial curve]
CNC(=O)COc1coc(CN2CCN(c3ccccc3OC)CC2)cc1=O | – | inactive
Oc1ccccc1-c1cc(-c2ccccc2)n[nH]1 | – | inconclusive [inhibitor, single point]
CCOC(=O)C1=CNS(=O)(=O)NC1c1ccc(C(=O)OC)cc1 (stereo not given) | – | inactive
Cc1ccc(CN2CCSc3ccc(C(=O)Nc4ccc(Cl)cc4)cc32)cc1 | – | inconclusive [inhibitor, single point]
Oc1ccc(-c2csc(-c3cccnc3)n2)c(O)c1 | – | inconclusive [inhibitor, single point]
O=C(CCc1nc2ccccc2c(=O)[nH]1)N1CCN(S(=O)(=O)c2ccc(Cl)c(C(F)(F)F)c2)CC1 | – | inconclusive [inhibitor, single point]
CC1CCN(c2ccc(NC(=O)c3cccnc3Cl)cc2)CC1 | inconclusive: -30.9% [inhibitor] | –
O=C(/C=C/c1ccccc1)Nc1cc(S(=O)(=O)N2CCOCC2)ccc1N1CCOCC1 | – | inactive
O=C(Nc1cccc2c1CCCC2)c1cc([N+](=O)[O-])cc([N+](=O)[O-])c1 | – | inactive
CCOC(=O)c1c(NC(=O)COC(=O)c2ccc(S(=O)(=O)C(F)F)cc2)sc(C(=O)N(C)C)c1C | – | inconclusive [inhibitor, single point]
CC(C)(CNC(=S)NCCc1ccccc1)CNC(=S)NCCc1ccccc1 | – | active: 29.1 µM
Cc1nonc1NC(=O)CSc1nc(CCC2CCCC2)nc2ccccc12 | – | inconclusive [inhibitor, single point]
COCCNC(=O)c1ccc2c3n(nc2c1)-c1ccc(C)cc1CO3 | – | inconclusive [inhibitor, partial curve, poor fit]
COc1ccc(OC)c(S(=O)(=O)NC(=O)C2(C)CCN2C(=O)CC2CCCC2)c1 (stereo not given) | – | inactive
OC1CCN(Cc2cn(Cc3ccccc3)nc2-c2cc3ccccc3o2)CC1 | – | inactive
O=C(O)c1ccc(-c2nc(-c3ccc(Cl)c(Cl)c3)cs2)cc1 | – | inconclusive [inhibitor, partial curve]
CCN(CC(=O)NC(C)C)Cc1nc2c(Br)cc(Br)cc2c(=O)[nH]1 | – | inconclusive [inhibitor, partial curve, poor fit]
